From PubChem BioAssay AID445 (National Center for Advancing Translational Sciences (NCATS), 2006)
Out of some 110,000 compounds screened, about 40 (0.04%) were called active. The inconclusive results got no clear call from the source; some entries with a clear call stand among them for comparison. The call rests on the fitted dose curve; in most records, active means well fitted curve in the direction sought with a large enough effect in the signal ratio (not every such curve was filed as active); inconclusive means small, poorly fitted or top-dose-only effect, or a change in a side signal; inactive means flat fitted curve, though single readings scatter; the % refers to the signal ratio. Where the call is inconclusive, the potency comes from a doubtful curve fit.

Experiment: IkB Signaling;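 on IkBa stabilization activation: 0% = basal untreated cells and 100% = reference inhibitor full response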
Details: ABC-DLBCL IkBa-CBG/CBR dual luciferase ratio (green luciferase fused to IkBa over red control in OCI-Ly3 lymphoma cells), 4 h, scaled: untreated 0%
How it was run: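 Luminescence ratio of IκBα-fused green versus native red beetle luciferase in OCI-Ly3 cells, 4 h post-doxycycline with compound; red signal alone, scaled from basal (0%) to zero light (-100%), flagged nonspecific or cytotoxic effects.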

[1] = IkBa stabilization activation: at 57.1 µM (top of the series), proteasome inhibitor 100% unless noted
Potency means the concentration at half of the fitted maximal effect.

Compound: Cc1cc(NC(=O)CSc2ncc(C(=O)Nc3ccc(Cl)cc3)c(=O)n2C)no1
- IkBa stabilization activation [1]: inconclusive: -0.898% [signal inhibitor]

Compound: Cc1sc(NC(=O)c2ccco2)nc1-c1ccc2c(c1)CC(C)N2C(=O)C1CC1 (centres undefined)
- Potency [1]: inconclusive: 39.8 µM [signal inhibitor, single point]

Compound: O=C(NC1CCCC1)c1ccc2c(c1)N(Cc1ccccc1)C(=O)c1ccccc1S2
- IkBa stabilization activation [1]: inconclusive: 2.02% [signal inhibitor]

Compound: CC1CCN(c2nc3ccc(C(=O)NCc4ccccc4Cl)cc3s2)CC1
- IkBa stabilization activation [1]: inconclusive: 19.5% [signal inhibitor]

Compound: O=C(CCc1ccccc1)Nc1c(F)c(F)c(F)c(F)c1F
- IkBa stabilization activation [1]: inactive

Compound: COc1ccc(C2=C(N3CCN(c4cccc(C)c4)C(C)C3)c3ccccc3C2=O)cc1 (centres undefined)
- IkBa stabilization activation [1]: inconclusive: -3.05% [signal inhibitor]

Compound: Cc1ccccc1-c1ccc2ncnc(N3CCOCC3)c2c1
- IkBa stabilization activation [1]: inactive: -2.36% [at 11.4 µM, scaled: untreated 0%, proteasome inhibitor 100%]

Compound: CCOc1nc(C#N)nc(N2CCCCC2)n1
- IkBa stabilization activation [1]: inconclusive: 0.807% [signal inhibitor]

Compound: COc1cc2ncc(C(=O)c3ccc(C)cc3)c(N3CCCCC3)c2cc1OC
- IkBa stabilization activation [1]: inconclusive: -1.64% [signal inhibitor]

Compound: CC(C)c1ccccc1N1CC(C(=O)O)CC1=O (centres undefined)
- IkBa stabilization activation [1]: inactive

Compound: Cc1cccn2c(=O)c(C(=O)NCCc3ccccc3)cnc12
- IkBa stabilization activation [1]: inconclusive: 10.8% [signal inhibitor]

Compound: COc1ccc(CNCCC(c2ccc3c(c2)OCO3)c2ccccc2OC)cc1 (centres undefined)
- IkBa stabilization activation [1]: inconclusive: 14.7% [signal inhibitor]

Compound: Cc1cccc(NC(=O)COc2ccc(-c3nn(C)c(=O)c4ccccc34)cc2)c1
- Potency [1]: inconclusive: 39.8 µM [signal inhibitor, single point]

Compound: COC(=O)c1ccccc1NC(=O)CSc1nc(=O)cc(N)n1-c1ccccc1
- IkBa stabilization activation [1]: inconclusive: 11.3% [signal inhibitor]

Compound: CC/C(C)=N/O
- IkBa stabilization activation [1]: inactive

Compound: N#Cc1ccc(OCc2nnc(SCC(=O)N3CCCc4ccccc43)n2-c2ccccc2)cc1
- IkBa stabilization activation [1]: inconclusive: 3.57% [signal inhibitor]

Compound: Cc1cc(Cl)cc2c1NC(=O)[C@]21[C@@H]2C(=O)N(Cc3ccccc3)C(=O)[C@@H]2[C@@H]2CCCN21
- IkBa stabilization activation [1]: inconclusive: 0.921% [signal inhibitor]

Compound: Cn1c(=O)oc2cc(S(=O)(=O)N3CCCC(C(=O)NCCc4ccccc4)C3)ccc21 (centres undefined)
- IkBa stabilization activation [1]: inconclusive: 1.12% [signal inhibitor]

Compound: Cc1ccc(CNC(=O)c2c[nH]n3c(=O)c(Cc4ccc(Cl)cc4)c(C)nc23)cc1
- IkBa stabilization activation [1]: inconclusive: -5.3% [signal inhibitor]

Compound: CCC1SC(=NC(=O)c2ccc(Cl)c(Cl)c2)NC1=O (centres undefined)
- IkBa stabilization activation [1]: inconclusive: 13.8% [signal inhibitor]

Compound: CCc1ccc(S(=O)(=O)c2cn(Cc3ccccc3F)c3cc(OC)c(OC)cc3c2=O)cc1
- IkBa stabilization activation [1]: inconclusive: -0.145% [signal inhibitor]

Compound: OCc1nc2ccccc2n1CCCOc1ccc(Br)cc1
- IkBa stabilization activation [1]: inactive

Compound: CS(=O)(=O)Nc1cccc(-c2nc(N3CCOCC3)c3ccccc3n2)c1
- IkBa stabilization activation [1]: inactive: -3.12% [at 11.4 µM, scaled: untreated 0%, proteasome inhibitor 100%]

Compound: COc1ccc(NC(=O)CSc2nnc(NC(=O)NC3CCCCC3)s2)cc1OC
- IkBa stabilization activation [1]: inconclusive: 7.01% [signal inhibitor]

Compound: Cc1ccc(CCNC(=O)c2c3c(nc4ccccc24)C(=O)N(C2CCCCC2)C3)cc1
- IkBa stabilization activation [1]: inconclusive: 1.67% [signal inhibitor]

Compound: C=C1CC[C@@H](O)C/C1=C/C=C1\CCC[C@]2(C)[C@@H]1CC[C@H]2[C@@H](C)/C=C\[C@@H](C)C(C)C
- IkBa stabilization activation [1]: inactive: 2.25% [at 11.4 µM, scaled: untreated 0%, proteasome inhibitor 100%]

Compound: O=C(Nc1ccc2oc(-c3ccncc3)nc2c1)c1ccccc1Cl
- IkBa stabilization activation [1]: inconclusive: 4.92% [signal inhibitor]

Compound: CCCCS(=O)(=O)/C=C\C=C/S(=O)(=O)CCCC
- IkBa stabilization activation [1]: inconclusive: 0.396% [signal inhibitor]

Compound: CCOc1ccc(-n2cc(-c3ccccc3)c3c(N4CCN(c5ccccc5OC)CC4)ncnc32)cc1
- IkBa stabilization activation [1]: inconclusive: 1.5% [signal inhibitor]

Compound: O=c1cc(-c2ccc(O)c(O)c2)oc2cc(O)cc(O)c12
- IkBa stabilization activation [1]: inconclusive: -4.26% [signal inhibitor] [at 25.6 µM, scaled: untreated 0%, proteasome inhibitor 100%]
- IkBa stabilization activation (at 11.4 µM (top of the series), proteasome inhibitor 100%): inactive: -4.9%

Compound: CCCCN(CC)C(=O)CSc1c2c(nc3ccc(Cl)cc13)CCCC2
- IkBa stabilization activation [1]: inconclusive: 10.2% [signal inhibitor]

Compound: CCOC(=O)c1c(C)[nH]c(C)c1S(=O)(=O)N1CCCC(C(=O)NCc2ccc(Cl)cc2)C1 (centres undefined)
- IkBa stabilization activation [1]: inactive

Compound: COc1cccc(-c2nc(CS(=O)CC(=O)O)c(C)o2)c1 (centres undefined)
- IkBa stabilization activation [1]: inactive
